Test results taken from publication PMC4918319.
These are yes or no findings as the source states them, for the method shown. For some assays here: Binding seen in cells or lysates may run through a third protein. Some binding calls cover weakened binding; strength is not graded here. Values belong to the substance of their own block, whether it stands above or below them.

Protein sequences, listed by entry. Tags and fused reporters are not part of them. Lines headed by an entry give the natural chain unless they say otherwise; changes in a name come on top. Chains listed by the source or under a name are the forms on record and can include a tag or linker.
UniProt P14618: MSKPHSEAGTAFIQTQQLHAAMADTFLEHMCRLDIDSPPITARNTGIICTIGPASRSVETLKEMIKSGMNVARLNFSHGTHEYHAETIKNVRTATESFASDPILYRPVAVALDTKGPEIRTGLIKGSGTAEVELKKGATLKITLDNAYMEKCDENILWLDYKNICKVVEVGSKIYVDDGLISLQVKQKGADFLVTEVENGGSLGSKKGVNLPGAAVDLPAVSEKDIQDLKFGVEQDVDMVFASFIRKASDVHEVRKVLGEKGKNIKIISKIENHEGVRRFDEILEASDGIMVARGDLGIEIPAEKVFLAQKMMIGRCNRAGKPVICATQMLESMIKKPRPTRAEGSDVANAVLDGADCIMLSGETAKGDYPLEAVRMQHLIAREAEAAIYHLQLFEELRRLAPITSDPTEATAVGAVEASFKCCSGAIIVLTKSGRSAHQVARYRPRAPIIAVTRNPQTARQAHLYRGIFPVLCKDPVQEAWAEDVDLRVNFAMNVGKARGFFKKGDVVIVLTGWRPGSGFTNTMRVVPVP
FLAG-PKM1 (P14618, form named): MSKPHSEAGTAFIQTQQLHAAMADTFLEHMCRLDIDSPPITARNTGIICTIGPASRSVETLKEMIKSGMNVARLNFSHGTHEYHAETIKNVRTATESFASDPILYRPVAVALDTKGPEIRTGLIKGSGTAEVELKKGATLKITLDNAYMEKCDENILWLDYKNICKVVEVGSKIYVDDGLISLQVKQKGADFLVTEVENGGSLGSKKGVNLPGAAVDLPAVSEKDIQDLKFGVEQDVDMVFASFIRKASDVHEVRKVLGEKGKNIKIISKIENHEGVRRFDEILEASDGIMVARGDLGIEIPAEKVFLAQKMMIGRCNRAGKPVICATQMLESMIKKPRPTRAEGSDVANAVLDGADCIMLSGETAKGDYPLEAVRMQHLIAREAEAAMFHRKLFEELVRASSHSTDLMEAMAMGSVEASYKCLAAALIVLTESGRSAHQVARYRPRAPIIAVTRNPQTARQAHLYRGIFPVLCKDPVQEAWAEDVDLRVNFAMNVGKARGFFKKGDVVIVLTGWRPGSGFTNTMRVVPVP
UniProt P45983: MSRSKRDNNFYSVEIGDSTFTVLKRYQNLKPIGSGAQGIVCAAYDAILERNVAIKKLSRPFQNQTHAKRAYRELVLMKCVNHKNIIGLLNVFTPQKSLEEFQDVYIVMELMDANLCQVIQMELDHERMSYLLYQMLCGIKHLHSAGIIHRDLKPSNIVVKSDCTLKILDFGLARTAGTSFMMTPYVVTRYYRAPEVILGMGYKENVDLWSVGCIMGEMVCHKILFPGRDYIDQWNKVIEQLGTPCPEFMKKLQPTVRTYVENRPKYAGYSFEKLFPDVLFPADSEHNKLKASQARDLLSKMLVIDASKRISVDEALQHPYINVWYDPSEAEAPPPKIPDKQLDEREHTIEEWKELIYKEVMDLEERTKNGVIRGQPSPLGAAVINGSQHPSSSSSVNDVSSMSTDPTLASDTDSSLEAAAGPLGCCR

Assays:
FLAG-PKM1 (human) = FLAG-PKM1 (human) (UniProt P14618); assay: co-IP; HEK293T cells co-transfected with FLAG-PKM2 or FLAG-PKM1 and HA-JNK1, HA-JNK2 or empty vector; lysates immunoprecipitated with anti-FLAG M2-affinity gel for at least 4 h at 4 °C, washed four times with lysis buffer (50 mM Tris-HCl pH 7.5, 100 mM NaCl, 0.5% NP-40), western blot
FLAG-tagged PKM2 (human) = FLAG-tagged PKM2 (human) (UniProt P14618); assay: as above
[1] = target: endogenous JNK1 (human (endogenous in Huh7 and PLC5)) (UniProt P45983); assay: co-IP; endogenous proteins; JNK1 immunoprecipitated with anti-JNK1 antibody from lysates of Huh7 and PLC5 cells expressing shNS or shPARP14, western blot for PKM2
recombinant active JNK1 = recombinant active JNK1 (UniProt P45983); assay: pull-down; in vitro pull-down: purified rec. active JNK1 and His-PKM2 incubated, then IP with anti-JNK1 and western blot for PKM2; both purified

binding (FLAG-PKM1 (human)): no binding
binding (FLAG-tagged PKM2 (human)): binds
Substance: HA-JNK1 (from UniProt P45983 1-427) (enzyme)

binding [1]: binds
Substance: endogenous PKM2 (from UniProt P14618 1-531) (enzyme)

binding (FLAG-tagged PKM2 (human)): no binding
Substance: HA-JNK2 (from UniProt P45984 1-424) (enzyme)

binding (recombinant active JNK1): binds
Substance: His-PKM2 (from UniProt P14618 1-531) (enzyme)
